These results are taken from the RNAGym collection of RNA variant scans (doi:10.7554/elife.90254).

Read counts are not given, so values of variants with three or more changes are uncertain.

Sequences and labels used below:
B1: LINE1-full (parent)
chain: UACGUAGGUGGUUUUCCCCUGAUAGUGCUAAGGGGGCCUGGAAGUUUGGACUGGGCAGAGCUCAACACAGCGUGGCAAAGUGGCUGUGGCUAGACUGCCUCUCUGGAUUCCUCGUCACUCAGCAGGGCAUCUCUGAGAGAAAUGCC

In the data set the parent is B1. In words: self-cleavage, relative activity (ratio to wild type); higher = more cleavage; in vitro, sequencing; the parent is a self-cleaving ribozyme.
Take UACGUAGGUGGCUUUCCCCUGAUAGUGCUAAGGGGGCCUGGAAGUUUGGACUGGGCAGAGCUCAACGCAGCGUGGCAAAGUGGCUGUGGCUAGGCUGCCUCUCUGCAUUCCUCGUCACUCAGCAGGGCAUCUCUGAGAGGAAUGCC: the self-cleavage was found to be 0.

UACGUAGGUGGCUUUCCCCUGAUAGUGCUAAGGGGGCCUGGAAGUUUGGACUGGGCAGGGCUCAACACAGCGUGGCAAAGUGGCUGUGGCUAGACUGCCACUCUGGAUUCCUCGUCACUCAGCAGGGCAUCUCUGAGAGAAAUGCC: the self-cleavage came out at 0.32.

UACGUAGGUGGCUUUCCCCUGAUAGUGCUAAGGGGGCCUGGAAGUUUGGUCUGGGCAGAGCUCAACACAGCGUGGCAAAGUGGCUGUGGCUAGACUGCCUCUCUGGAUUCCUCGUCUCUCAGCAGGGCAUCUCUGAGAGAAAUGCC: the self-cleavage was determined as 1.38.

In the case of UACGUAGGUGGCUUUCCCCUGAUAGUGCUAAGGGGGCCUGGAAGUUUGGACUGGGCAGAGCUCUACACAGCGUGGCAAAGUGGCUGUGGCUAGACUGCCUCUCUGGAUUCCUCGUCACUCAGCAGGGCACCUCUGAGAGAAAUGCC, the self-cleavage amounted to 0.76.

As to UACGUAGGUGGCUUUCCCCUGAUAGUGCUAAGGGGGCCUGGAAGUUUGGACUGGGCAGGGCUCUACACAGCGUGGCAAAGUGGCUGUGGCUAGACUGCCUCUCUGGGUUCCUCGUCACUCAGCAGGGCAUCUCUGAGAGAAAUGCC, the self-cleavage was determined as 0.24.

For UACGUAGGUGGCUUUCCCCUGAUAGUGCUAAGGGGGCCUGGAAGUUUGGACUGGGCGGAGCUCAACACAGCGAGGCAAUGUGGCUGUGGCUAGACUGCCUCUCUGGAUUCCUCGUCACUCUGCAGGGCAUCUCUGAGAGAAAUGCC, the self-cleavage was 0.89.

As for UACGUAGGUGGCUUUCCCCUGAUAGUGCUAAGGGGGCCUGGAAGUUUGGACUGGGCAGAGCUCAGCACAGCGUGGCAAAGUGGCUGUGGCUAGACUGCCUCUCUGGAUUCCUCGUCACUCAGCAGGGCACCUCUGAGAGAAAUGCC, the self-cleavage is 0.28.

Consider UACGUAGGUGGCUUUCCCCUGAUAGUGCUAAGGGGGCCUGGAAGUUUGGACUGGGCAGAGCUCAACCCAGCGUGGCAAAGUGGCUGUGGCUAGACUGCCUCUCUGGAUUCCUCGUCACUCAGCAGGGCAUCUCUGAGAGAGAUGCC, for which the self-cleavage amounted to 0.

UACGUAGGUGGCUUUCCCCUGAUAGUGCUAAGGGGGCCUGGAAGUUUGGACUGGGCAGAGCUCUACACAGCGUGGCAAAGUGGCUGUGGCUAGACUGCCUCUCUGGAUUCCUCGCCACCCAGCAGGGCAUCUCUGAGAGAAAUGCC: the self-cleavage was 1.41.

For UACGUAGGUGGCUUUCCCCUGAUAGUGCUAAGGGGGCCUGGAAGUUUGGACUGGGCUGAGCUCAACGCAGCGUGGCAAAGUGGCUGUGGCUAGACUGCCUCUCUGGAUUCCUCGUCACUCAGCAGGGCAUCUCUGAGAGAAAUGCC, the self-cleavage was found to be 0.

With UACGUAGGUGGCUUUCCCCUGAUAGUGCUAAGGGGGCCUGGAAGUUUGGACUGGGCAGAGCUCAACGCAGCGUGGCAAAGUGGCUGUGGCUAGACUGCCUCUCUGGAUUCCUCGUCACUCAGCAGUGCAUCUCUGAGAGUAAUGCC, the self-cleavage turned out to be 0.29.

Consider UACGUAGGUGGCUUUCCCCUGAUAGUGCUAAGGGGGCCUGGAAGUUUGGGCUGGGCAGAGCUCAACACAGUGUGGCAAAGUGGCUGUGGCUAGACUGCCUCUCUGGAUUCCUCGUCACUCAGCAGGGCAUCUCUGAGAGAAAUGCC, for which the self-cleavage was 0.32.

With UACGUAGGUGGCUUUCCCCUGAUAGUGCUAAGGGGGCCUGGAAGUUUGGACUGGGCAGGGCUCAACACAGCGUGGCAAAGUGGCUGUGGCUAGACUGCCUCUCUGGGUUCCUCGUCUCUCAGCAGGGCAUCUCUGAGAGAAAUGCC, the self-cleavage is 0.16.

Turning to UACGUAGGUGGCUUUCCCCUGAUAGUGCUAAGGGGGCCUGGAAGUUUGGACUGGGCGGAGCUCAACACAGCGUGGCAAAGUGGCUGUGGCUAGACUGCCUCUCUGGAUUCCUCGUCACCCAGCAGGGCAUCUCUGAGAGAAAUGCC, the self-cleavage came out at 0.63.

For the variant UACGUAGGUGGCUUUCCCCUGAUAGUGCUAAGGGGGCCUGGAAGUUUGGACUGGGCGGAGCUCUACCCAGCGUGGCAAAGUGGCUGUGGCUAGACUGCCUCUCUGGACUCCUCGUCACUCAGCAGGGCAUCUCUGAGAGAAAUGCC, the self-cleavage turned out to be 0.

Consider UACGUAGGUGGCUUUCCCCUGAUAGUGCUAAGGGGGCCUGGAAGUUUGGGCUGGGCAGAGCUCAACACAGCGUGGCAAAGUGGCAGUGGCUAGACUGCCUCUCUGGAUUCCUCGUCACUCAGCAGGGCAUCUCUGAGAGAAGUGCC, for which the self-cleavage was 0.06.

For UACGUAGGUGGCUUUCCCCUGAUAGUGCUAAGGGGGCCUGGAAGUUUGGACUGGGCGGAGCUCAACACGGCGUGGCAAAGUGGCUGUGGCUAGACUGCCUCUCUGGGUUCCUCGUCACCCAGAAGGGCAUCUCUGAGAGAAAUGCC, the self-cleavage was 0.

Consider UACGUAGGUGGCUUUCCCCUGAUAGUGCUAAGGGGGCCUGGAAGUUUGGGCUGGGCAGAGCUCAAGACAGCGUGGCAAAGUGGCUGUGGCUAGACUGCUUCUCUGGAUUCCUCGUCACUCAGCAGGGCAUCUCUGAGAGAAAUGCC, for which the self-cleavage stood at 0.2.

In the case of UACGUAGGUGGCUUUCCCCUGAUAGUGCUAAGGGGGCCUGGAAGUUUGGACUGGGCAGAGCUCGACACAGCGUGGCAAAGUGGCUGUGGCUAGACUGCCUCUCUGGAUUCCUCGUCACUCAGCAGGGCACCUCUGAGAGGAAUGCC, the self-cleavage stood at 0.

Turning to UACGUAGGUGGCUUUCCCCUGAUAGUGCUAAGGGGGCCUGGAAGUUUGGUCUGGGCAGAGCUCUACACAGCGUGGCAAAGUGGCUGUGGCUAGACUGCCUCUCUGGAUUCCUCGUCACUCAGCAGGGCAUCUCUGAGAGAAAUGCC, the self-cleavage came to 0.35.
